“And” between values parts separate entries of the source, which are not always exact repeats. Identical values can stand only once. In all, about 360,000 compounds went through this assay and about 17,000 (4.7%) were called active. Inconclusive results, whose numbers are uncertain, are shown with a selection of clear calls. No stated cut-off is given here; in the data, active means activity change below about -50%; inconclusive means mostly about -30% to -49%; inactive means weaker than that.
Experiment: qHTS for Inhibitors of Inflammasome Signaling: IL-1-beta AlphaLISA Primary Screen
Conditions: THP-1 LPS/ATP IL-1B secretion, 16 h, at 57.5 µM, hits give low values
How it was run: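 THP-1 cells pretreated 1 hr with compounds (up to 57.5 uM final), then stimulated with LPS (250 ng/mL final) plus ATP (1.25 mM final); secreted IL-1B measured by AlphaLISA after 16 hr, decreased signal indicating inhibition.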
On the % scale 0 is the no-effect control and ±100 the full control effect.

| SMILES | activity change |
| --- | --- |
| COc1ccccc1OCCCn1cc(C=O)c2ccccc21 | inconclusive: -43.9% |
| NC(Cc1ccc(F)cc1)c1csc(Nc2ccccn2)n1 (stereo not given) | active: -50.7% |
| COC(=O)C1=C(c2ccc(OCc3ccccc3)cc2)C[C@@H]2CC[C@H]1N2C(=O)NCc1ccccc1C(F)(F)F | inactive: -2.75% |
| CNC(=O)Oc1ccc(N(C)C)cc1C(C)C | inactive: 0% |
| Cc1ccc(OP(=O)(Nc2cccc(C)c2)Oc2ccc(C)cc2)cc1 | inconclusive: -38.1% |
| CCn1c(=O)cc(SCC(=O)N2CCC3(CC2)OCCO3)c2ccccc21 | inconclusive: -40.6% |
| COc1ccc(OC(=O)N(C)C[C@H]2OCc3cnnn3CCCC(=O)N([C@H](C)CO)C[C@@H]2C)cc1 | inactive: 11.8% |
| Cc1c(C(=O)O)cc(-c2ccccc2)n1Cc1ccccc1 | inactive: -0.311% |
| Cc1ccc(Cn2nnnc2CN2CCC(n3nnc4cc(C)ccc43)CC2)cc1 | inconclusive: -38.5% |
| Cc1nc2ccc(Cl)cc2c(-c2ccccc2)c1C(=O)O | inactive: -1.61% |
| CC(C)CNC(=O)c1c(N)n(Cc2ccc3c(c2)OCO3)c2nc3ccccc3nc12 | inconclusive: -46.2% |
| COc1cccc(C2CC3C(=O)C=CC2N3Cc2ccccc2)c1 (stereo not given) | inconclusive: -34.5% |
| O=C(/C=C/c1ccccc1)N1Cc2ccccc2-n2nncc2C1 | inactive: 23.2% |
| CN1C(=O)C(=Cc2ccccc2OCc2ccccc2Cl)C(=O)N(C)C1=O | inactive: 37.2% |
| COC(=O)C1=C(c2ccc(Cl)c(C(F)(F)F)c2)C[C@@H]2CC[C@H]1N2C(=O)NCc1ccc2c(c1)OCO2 | inconclusive: -37.9% |
| COc1ccc(C(c2nnnn2Cc2ccccc2)N2CCC3(CC2)C(=O)NCN3c2ccccc2)cc1 (stereo not given) | active: -58.3% |
| COc1ccccc1-n1c(/C=C/c2ccc(O)cc2)nc2ccccc2c1=O | inconclusive: -47.4% |
| CCCCCN1C(=O)c2ccccc2[C@@]2(C(=O)OCC)Cc3cc(Cl)ccc3[C@@H]12 | active: -50.1% |
| Cn1c(O)c(C(=N)COc2cccc(Cl)c2)c(=O)n(C)c1=O | inconclusive: -35.9% |
| NC(Cc1ccc(Cl)cc1)c1csc(Nc2ncccn2)n1 (stereo not given) | inconclusive: -46.8% |
| COc1ccc(S(=O)(=O)N2Cc3ccccc3-n3nncc3C2)cc1 | inactive: 33.4% |
| O=C(Nc1cccc(Cl)c1)OC1CN2CCC1CC2 (stereo not given) | inconclusive: -40.1% |
| Cc1nc2ccccc2n1C1CCN(Cc2nnnn2CCc2ccccc2)CC1 | inconclusive: -40.4% |
| O=C1NC(=O)N(c2ccccc2)C(=O)/C1=C\c1ccccc1[N+](=O)[O-] | inactive: 14.8% |
| CC(=O)OC(C)(C)/C=C/C(=O)[C@](C)(O)[C@H]1[C@H](O)C[C@@]2(C)[C@@H]3CC=C4[C@H](C[C@H](O)C(=O)C4(C)C)[C@]3(C)C(=O)C[C@]12C | active: -112% |
| O=C1C2C3CCC(O3)C2C(=O)N1c1cccc(F)c1 (stereo not given) | inactive: 78.3% |
| O=C1C(Cl)=CC(=Nc2ccc(O)cc2)C=C1Cl | inconclusive: -34.7% |
| Clc1cccc(Cl)c1NC1=NCCS1 | inconclusive: -31.4% |

| SMILES | activity change |
| --- | --- |
| Cc1cc(=O)oc2cc(OCC(=O)N3CCN(C(C)c4ccccc4)CC3)c(Cl)cc12 (stereo not given) | inconclusive: -34.3% |
| COc1ccc(-c2cc(=O)oc3c(C)c(OC(C)C(=O)N4C[C@H]5C[C@@H](C4)c4cccc(=O)n4C5)ccc23)cc1 (stereo not given in full) | inconclusive: -44.3% |
| CCOC(=O)C1(CCc2ccccc2)CCN(Cc2ccco2)CC1 | inconclusive: -41% |
| O=Cc1cn(Cc2ccc([N+](=O)[O-])cc2)c2ccccc12 | inactive: 0% |
| Nc1ccc(C2(c3ccc(N)cc3)c3ccccc3-c3ccccc32)cc1 | active: -171% |
| O=C(O)c1ccc(/C=C/c2nc3ccccc3c(=O)n2-c2ccc(Br)cc2)cc1 | inconclusive: -38.6% |
| O=c1[nH]c2ccccc2n1CCCN1CCC(n2c(=O)[nH]c3cc(Cl)ccc32)CC1 | inconclusive: -42.8% |
| CN1CCN(c2cc(N3CCCC3)c([N+](=O)[O-])cc2F)CC1 | inconclusive: -47.4% |
| Cn1cccc1/C=C1/C(=O)NC(=O)N(C(C)(C)C)C1=O | inactive: -6.82% |
| COP(=S)(OC)Oc1ccc(SC)c(C)c1 | inactive: 7.96% |
| CN1C2CCC1/C(=C/c1ccccn1)C(=O)/C2=C\c1ccccn1 | active: -101% |
| CN(C)c1ccc(/C=C/c2cc[n+](C)c3ccccc23)cc1 | active: -99.8% and active: -102% |
| Cc1nc2ccccc2c(=O)n1-c1ccc(F)cc1 | inactive: 22.3% |
| CCCCOCCCn1c(N)c(C(=O)OCCOC)c2nc3ccccc3nc21 | inconclusive: -34.9% |
| CN(C)P(=O)(C(Cl)=C(N1CCCCC1)N1CCCCC1)N(C)C | inconclusive: -46.8% |
| CCOC(=O)[C@]12Cc3cc(Cl)ccc3[C@H]1N(C)C(=O)c1ccccc12 | active: -62.4% |
| CN(C(=O)Cc1ccc2c(c1)OCO2)C1CCCN(Cc2ccccc2F)C1 (stereo not given) | inactive: -10.3% |
| CC(NC(=O)Oc1ccccc1)C(c1cccs1)N1CCOCC1 (stereo not given) | inactive: -10.9% |
| CCOC(=O)C(O)(c1ccc(NC(=S)NC(=O)c2ccc(Cl)cc2Cl)cc1)C(F)(F)F (stereo not given) | inconclusive: -47.3% |
| CC[n+]1c(SC)ccc2cc(OC)ccc21 | inactive: 5.86% |
| O=c1[nH]c2ccccc2n1C1CCN(C(c2ccnc3ccccc23)c2nnnn2-c2ccc3c(c2)OCCO3)CC1 (stereo not given) | inconclusive: -34.5% |
| O=C1NC(=O)C(=Cc2ccco2)C(=O)N1 | inactive: -13.8% |
| Cc1cc(OCC(=O)NCc2cccnc2)c2c3c(c(=O)oc2c1)CCCC3 | inconclusive: -30.3% |
| CCN1C(=O)C(=Cc2c(C)n(CC(=O)NCC3CCCO3)c3ccccc23)C(=O)N(CC)C1=S (stereo not given) | inconclusive: -35.1% |
| c1ccc2c(N3CCNCC3)cccc2c1 | inconclusive: -37.3% |
| O=C1C=C2C=C[C@@H]3CC2(O1)[C@H]1CCCCN31 | active: -95.9% |
| O=C(CCN1CCN(CCO)CC1)N1c2ccccc2Sc2ccc(C(F)(F)F)cc21 | inconclusive: -33.5% |

— PubChem BioAssay AID743279 (National Center for Advancing Translational Sciences (NCATS), 2014)
